Test [1] has as its target T1, Human PD1, Sino Biological Cat #: HPLC-10377-H08H (human, UniProt Q15116 part only).
T1 construct: Bought; also called PD-1 (Octet antigen)
As to the kind of experiment: BLI (Octet RED96), antibody captured on the sensor, antigen in solution, 1:1 model. As for the experimental part: (§1) Binding experiments were performed on Octat Red af 25″° C. The human antibodies were loaded onto Anti-higG Fe Capture biosensors and the mouse antibodies were loaded onto Anti-migG Fe Capture biosensors both for 300 seconds. The ligand loaded sensors were dipped into a 3-fold series dilution (starting at 300 nad) of the antigens (PD-1 and KIR3DL3) for 240 seconds followed by dissociation for 400 seconds. Kinetic constanta were calculated using a monovalent (1:1) binding model Antigen: Haman PD1, Sino Biological Cat #: HPLC-10377-HOSH.
(In general: Biolayer interferometry detects binding as a change in optical thickness at a sensor tip.)

The target in test [2] is T2, Human KIR3DL3, Sino Biological Cat#: 16055-H08H (human, UniProt Q8N743 26-322).
T2 construct: Bought soluble antigen; also called KIR3DL3 (Octet antigen)
The description is as above. As for the experimental part:
as §1

T1 sequence (Q15116 25-167 limits assumed): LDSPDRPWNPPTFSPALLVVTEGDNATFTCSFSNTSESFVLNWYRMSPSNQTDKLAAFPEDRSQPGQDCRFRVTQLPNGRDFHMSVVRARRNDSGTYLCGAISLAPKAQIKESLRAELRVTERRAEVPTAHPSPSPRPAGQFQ
T2 sequence (Q8N743 other isoform, or with tags, fused parts or gaps H08H H08H limits assumed): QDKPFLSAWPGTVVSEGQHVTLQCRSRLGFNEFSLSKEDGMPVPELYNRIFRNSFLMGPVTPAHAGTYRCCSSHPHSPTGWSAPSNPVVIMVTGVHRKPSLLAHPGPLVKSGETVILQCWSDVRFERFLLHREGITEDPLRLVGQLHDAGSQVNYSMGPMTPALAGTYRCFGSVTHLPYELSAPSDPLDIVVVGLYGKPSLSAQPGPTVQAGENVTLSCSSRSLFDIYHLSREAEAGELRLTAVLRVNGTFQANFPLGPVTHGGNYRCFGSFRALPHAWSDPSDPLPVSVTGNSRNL

B1: PD-1 scFv (EH13), human IgG4 (S228P) Fc (scFv)
scFv: [no letters for human IgG4 Fc with S228P (EU numbers)]GGGGAGGGGEVKLVESGGGLVQPGGSLKLSCAASGFTFSSFTLSWVRQTPEKRLEWVAYISYGGADTYYPDTVKGRFTIFRDNAKNTLYLQMSSLKSEDTARYYCARHGPYGKGDYYAMDYWGQGTSVTVSSGGGGSGGGGSGGGGSDIVLTQSPASLAVSLGQRATISCRASESVDDFGISFMNWFQQKPGQPPKLLIFAASKQGSGVPARFSGSGSGTDFSLNIHPMEEDDTAMYFCQQSKEVPWTFGGVTKLEIK
notes: One chain as printed: human IgG4 Fc, linker, VH, (G4S)3 linker, VL; Signal peptide placeholder left out; also called LP PD-1 scFv (TP-31852); EH13 scFV
In the case of B1, in test [1], binding was characterised by a dissociation constant (Kd) of 31.6 nM; the koff – broadly, the first-order rate constant of dissociation – turned out to be 0.00341 s⁻¹; the kon (as a rule, the rate constant with which the complex forms) is 108000 M⁻¹ s⁻¹.

B2: KIR3DL3 scFv (2F11), human IgG4 (S228P) Fc (scFv)
scFv: [no letters for human IgG4 Fc with S228P (EU numbers)]GGGGAGGGGDVQLVESGGGLVQPGGSRKLSCAASGFTFSYFGMHWVRRAPEKGLEWVAFISSDSTTIYYTDTVKGRFTISRDNPKNTLFLQMTSLRSEDTAIYYCARFYDGAMDYWGQGTSVTVSTGGGGSGGGGSGGGGSDIVMTQSQKFMSTSVGDRVSITCKASQSVRTAVAWYQQKPGQSPKVLIYLASNRHTGVPDRFTGSGSGTDFTLTISNVQSEDLADYFCLQHWNYPLTFGAGTKLELK
notes: One chain as printed: human IgG4 Fc, linker, VH, (G4S)3 linker, VL; Signal peptide placeholder left out; also called LP KIR3DL3 scFv (TP-31853); KIR3DL3 mAb 2F11 scFV
In the case of B2, in test [2], binding was put at a Kd of 0.268 nM, the dissociation rate constant (koff) was determined as 4.42e-05 s⁻¹ and the association rate constant (kon) turned out to be 165000 M⁻¹ s⁻¹.
